Out of some 310,000 compounds screened, about 2,200 (0.71%) showed an effect of 50% or more. Effects have a minus sign here. The list shows a part of the results.
The compounds below were run against human ether-à-go-go-related gene (hERG) potassium channel (human, UniProt Q12809) (assay: primary screen, population patch clamp on CHO cells stably expressing hERG).
Sequence of human ether-à-go-go-related gene (hERG) potassium channel (Q12809 whole entry, looked up): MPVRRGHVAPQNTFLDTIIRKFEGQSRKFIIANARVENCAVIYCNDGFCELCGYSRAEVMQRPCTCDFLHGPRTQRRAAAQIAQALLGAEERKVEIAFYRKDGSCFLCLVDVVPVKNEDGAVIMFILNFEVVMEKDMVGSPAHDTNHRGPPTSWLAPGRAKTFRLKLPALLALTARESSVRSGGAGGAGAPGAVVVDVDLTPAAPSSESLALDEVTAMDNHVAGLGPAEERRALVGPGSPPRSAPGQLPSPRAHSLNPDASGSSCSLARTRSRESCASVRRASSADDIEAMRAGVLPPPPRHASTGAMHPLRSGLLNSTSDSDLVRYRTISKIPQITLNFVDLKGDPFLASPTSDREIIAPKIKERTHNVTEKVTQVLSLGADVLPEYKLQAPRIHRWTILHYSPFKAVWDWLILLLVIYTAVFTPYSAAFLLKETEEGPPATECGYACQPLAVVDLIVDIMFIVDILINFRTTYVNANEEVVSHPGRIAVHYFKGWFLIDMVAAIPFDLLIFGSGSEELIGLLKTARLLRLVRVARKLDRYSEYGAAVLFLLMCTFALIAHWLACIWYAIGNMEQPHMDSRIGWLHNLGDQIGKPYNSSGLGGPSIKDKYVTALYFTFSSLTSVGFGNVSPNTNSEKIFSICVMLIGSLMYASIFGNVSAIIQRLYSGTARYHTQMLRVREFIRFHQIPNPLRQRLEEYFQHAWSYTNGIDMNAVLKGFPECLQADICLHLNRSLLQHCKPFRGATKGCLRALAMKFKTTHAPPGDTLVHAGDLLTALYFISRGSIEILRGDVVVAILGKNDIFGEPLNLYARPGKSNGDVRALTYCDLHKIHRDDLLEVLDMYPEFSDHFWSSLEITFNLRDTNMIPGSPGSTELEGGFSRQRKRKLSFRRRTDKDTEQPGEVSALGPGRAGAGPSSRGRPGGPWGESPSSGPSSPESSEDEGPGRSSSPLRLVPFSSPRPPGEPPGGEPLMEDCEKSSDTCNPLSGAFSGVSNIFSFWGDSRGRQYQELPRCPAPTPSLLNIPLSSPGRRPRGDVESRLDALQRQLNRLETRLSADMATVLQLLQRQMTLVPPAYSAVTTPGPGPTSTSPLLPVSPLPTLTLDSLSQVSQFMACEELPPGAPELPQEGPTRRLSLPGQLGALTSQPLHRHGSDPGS

| SMILES | hERG current change (%, negative = inhibition) at 1uM |
| --- | --- |
| CS(=O)(=O)N1CCC(C(=O)N2CCN(c3ccccc3F)CC2)CC1 | 12.7% |
| COc1ccc(C(=O)Nc2ccc(NS(=O)(=O)c3ccccc3)cc2)cc1OC | 5.86% |
| Cc1ccc(S(=O)(=O)Nc2ccccc2F)cc1C(=O)NNC(=O)c1ccccc1O | 5.99% |
| Cc1cc(C)c(NC(=O)CN(c2ccccc2)S(=O)(=O)N(C)C)c(C)c1 | 1.04% |
| CCSc1nc2nc(C)cc(C)n2n1 | 28% |
| Cc1csc(NC(=O)c2cc(C)nc3ccccc23)n1 | -13.7% |
| C=C(C)C1CC=C(C)/C(=N\NC(=O)CNc2ccccc2OC)C1 (stereo not drawn) | 18.5% |
| CCCCN(C(=O)CC1CCCC1)c1c(N)n(CCC)c(=O)[nH]c1=O | -1.1% |
| COC(=O)c1ccc(C(=O)N2CCCC(CNC(=O)c3ccccc3Cl)C2)cc1 (stereo not drawn) | 2.8% |
| CN(CC(=O)Nc1c(Cl)cccc1Cl)C(=O)CC1OC(=O)c2ccccc21 (stereo not drawn) | 5.21% |
| O=C(NNC(=O)c1ccccc1F)c1ccc(-n2cncn2)c([N+](=O)[O-])c1 | 12.5% |
| O=C1c2ccccc2NC(c2ccccc2Br)N1CCCN1CCOCC1 (stereo not drawn) | 7.35% |
| N#Cc1cccc(S(=O)(=O)Nc2c(NC3CCCCC3)c3ccccc3oc2=O)c1 | -7.68% |
| CC(=O)OCC(=O)Nc1ccc(Br)c(C)c1 | 13.5% |
| Cc1onc(-c2ccccc2Cl)c1C(=O)OCn1nnc2ccccc2c1=O | 8.12% |
| COC(=O)C1CCN(C(=O)COC(=O)C2CCN(S(=O)(=O)c3c(Cl)cccc3Cl)CC2)CC1 | -1.82% |
| COc1ccc(-c2nc(CS(=O)CC(=O)NCC3CCCO3)c(C)o2)cc1 (stereo not drawn) | 2.15% |
| OCC[C@H]1C[C@@H](O)[C@H](O)[C@]2(CCc3ccccc3CO2)O1 | 3.84% |
| Cc1ccccc1NS(=O)(=O)c1ccc(C(=O)N2CCN(c3ccccc3O)CC2)cc1 | 2.23% |
| O=c1c2ccccc2cnn1Cc1n[nH]c(=S)n1-c1ccccc1 | 18.6% |
| COc1ccc(Cl)c(Cn2c(NCc3ccccn3)nc3c2c(=O)n(C)c(=O)n3C)c1 | 0.477% |
| COc1ccc(CN(C)C(=O)CNC(=O)c2ccc3ccccc3c2)c(OC)c1 | 11.4% |
| c1ccc(COn2nnc3ccccc32)c(COn2nnc3ccccc32)c1 | 7.33% |
| Cc1cc(NC(=O)NCC(F)(F)F)no1 | 13% |
